# In the supplement of paper PMC4604168 (melanoma cell lines):
# Some of the results follow. Most values come without repeats; read them as rough.
# Experiments:
# Assay in all cases: cell count relative to DMSO control; melanoma cells; higher = more viable cells
# Settings in all cases: library dose: standard library concentration; 72 h
# G361 = tested on: G361
# IPC-298 = tested on: IPC-298
# IST-MEL1 = tested on: IST-MEL1
# LB2518-MEL = tested on: LB2518-MEL
# LOXIMVI = tested on: LOXIMVI
# MEL-HO = tested on: MEL-HO
# MZ2-MEL = tested on: MZ2-MEL
# MeWo = tested on: MeWo
# RPMI7951 = tested on: RPMI7951
# RVH-421 = tested on: RVH-421
# SkMel28 = tested on: SkMel28
# SkMel2 = tested on: SkMel2
# SkMel30 = tested on: SkMel30
# SkMel5 = tested on: SkMel5
# UACC257 = tested on: UACC257
# UACC62 = tested on: UACC62
# WM115 = tested on: WM115
# WM1716 = tested on: WM1716
# WM1745 = tested on: WM1745
# WM3526 = tested on: WM3526
# 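Also: cells treated in 1,536-well plates, then fixed and DAPI-stained, with nuclei counted from automated high-throughput microscope images.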
Compound,cell count (G361),cell count (IPC-298),cell count (IST-MEL1),cell count (LB2518-MEL),cell count (LOXIMVI),cell count (MEL-HO),cell count (MZ2-MEL),cell count (MeWo),cell count (RPMI7951),cell count (RVH-421),cell count (SkMel28),cell count (SkMel2),cell count (SkMel30),cell count (SkMel5),cell count (UACC257),cell count (UACC62),cell count (WM115),cell count (WM1716),cell count (WM1745),cell count (WM3526)
"CC(=O)c1c(C)c2cnc(Nc3ccc(N4CCNCC4)cn3)nc2n(C2CCCC2)c1=O [palbociclib] + C[C@]1(c2nc3c(C(N)=O)cccc3[nH]2)CCCN1 [Veliparib] (first compound 0.2 µM, partner dose 7 µM)",72.7%,64.9%,79.5%,51.5%,42%,76.3%,68%,54.5%,70.9%,49%,34.2%,62.9%,63.6%,47.7%,72.7%,54.5%,38.7%,41.2%,73.2%,46.8%
"CO[C@H]1C[C@@H]2CC[C@@H](C)[C@@](O)(O2)C(=O)C(=O)N2CCCC[C@H]2C(=O)O[C@H]([C@H](C)C[C@@H]2CC[C@@H](OCCO)[C@H](OC)C2)CC(=O)[C@H](C)/C=C(\C)[C@@H](O)[C@@H](OC)C(=O)[C@H](C)C[C@H](C)/C=C/C=C/C=C/1C [everolimus] + CC(C)(C)c1cnc(CSc2cnc(NC(=O)C3CCNCC3)s2)o1 [SNS-032] (first compound 0.1 µM, partner dose 0.05 µM)",62.5%,87.1%,75.9%,50.8%,55.4%,61.3%,74.8%,70.7%,30.1%,75.5%,46.1%,59%,71.2%,38.9%,84.6%,54.3%,60.2%,70.3%,56.7%,69.3%
"CC(=O)O[C@@]12CO[C@@H]1C[C@H](O)[C@@]1(C)C(=O)[C@H](O)C3=C(C)[C@@H](OC(=O)[C@H](O)[C@@H](NC(=O)OC(C)(C)C)c4ccccc4)C[C@@](O)([C@@H](OC(=O)c4ccccc4)[C@H]21)C3(C)C [Docetaxel] + NC1(c2ccc(-c3nc4ccn5c(=O)[nH]nc5c4cc3-c3ccccc3)cc2)CCC1 [MK2206] (first compound 0.0005 µM, partner dose 2 µM)",11.1%,31.9%,54.3%,39.3%,81.3%,38.7%,38.7%,21%,34.8%,43.9%,13.6%,19.9%,34.7%,33.5%,68.8%,61.7%,20.5%,32%,34.4%,35.8%
"Nc1nc(F)nc2c1ncn2[C@@H]1O[C@H](CO)[C@@H](O)[C@@H]1O [fludarabine] + C=CCNC1=C2C[C@@H](C)C[C@H](OC)[C@H](O)[C@@H](C)/C=C(\C)[C@H](OC(N)=O)[C@@H](OC)/C=C\C=C(/C)C(=O)NC(=CC1=O)C2=O [Tanespimycin] (first compound 1 µM, partner dose 0.01 µM)",60.9%,69.2%,62%,81%,102%,68.9%,92.2%,74.7%,24.8%,97.7%,1.32%,1.6%,21.2%,29.2%,30.6%,61.4%,38.3%,90.4%,76.1%,23.4%
"CO[C@H]1C[C@@H]2CC[C@@H](C)[C@@](O)(O2)C(=O)C(=O)N2CCCC[C@H]2C(=O)O[C@H]([C@H](C)C[C@@H]2CC[C@@H](OCCO)[C@H](OC)C2)CC(=O)[C@H](C)/C=C(\C)[C@@H](O)[C@@H](OC)C(=O)[C@H](C)C[C@H](C)/C=C/C=C/C=C/1C [everolimus] + CN(NC(=O)CC(=O)NN(C)C(=S)c1ccccc1)C(=S)c1ccccc1 [STA4783] (first compound 0.1 µM, partner dose 0.03 µM)",20.1%,60.5%,33.6%,25%,73.4%,68.3%,81.8%,21.3%,43.9%,75.6%,6.47%,55.1%,65.7%,44.9%,82.6%,58.5%,22.6%,56.7%,32.4%,77.1%
"Nc1nc(F)nc2c1ncn2[C@@H]1O[C@H](CO)[C@@H](O)[C@@H]1O [fludarabine] + CO[C@@H]1[C@H](N(C)C(=O)c2ccccc2)C[C@H]2O[C@]1(C)n1c3ccccc3c3c4c(c5c6ccccc6n2c5c31)C(=O)NC4 [Midostaurin] (first compound 1 µM, partner dose 0.4 µM)",54.9%,65.7%,59.8%,71.6%,57%,69.6%,64.9%,66.7%,46%,58.4%,2.5%,1.53%,7.49%,28.9%,29.1%,64.8%,45.7%,48.7%,41.9%,19.1%
"CC(=O)O[C@@]12CO[C@@H]1C[C@H](O)[C@@]1(C)C(=O)[C@H](O)C3=C(C)[C@@H](OC(=O)[C@H](O)[C@@H](NC(=O)OC(C)(C)C)c4ccccc4)C[C@@](O)([C@@H](OC(=O)c4ccccc4)[C@H]21)C3(C)C [Docetaxel] + COc1cc(Nc2ncc(F)c(Nc3ccc4c(n3)NC(=O)C(C)(C)O4)n2)cc(OC)c1OC [Tamatinib] (first compound 0.0005 µM, partner dose 2 µM)",11.7%,32.8%,18.2%,19.4%,27%,42.2%,40.8%,33.2%,10.6%,43.9%,13.1%,16.1%,47%,30.4%,61.3%,61.2%,38.2%,38.5%,15.8%,34.1%
